# In PubChem BioAssay AID488969 (Vanderbilt High Throughput Screening Facility, 2010):
# In all, about 110,000 compounds were measured (“z-score”: median about -0.1, highest 2% from about 2 on). Some of the results follow. Calls of active or inactive are those of the source.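 How the source made its calls: active means z-score in the third read window above 3 or below -3; inactive means the rest.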
# Target: Metabotropic glutamate receptor 8 (Rattus norvegicus) (UniProt P70579)
# Experiment: mGluR8 Gi/Go-coupled signaling modulation – cell-based, rat, thallium flux, HTS, primary screen (AID 488969)
# Settings: HEK293 rat mGluR8, GIRK (G protein-gated inwardly rectifying potassium channel) thallium flux, FluoZin2; at 10 µM; stronger effect = higher value; submaximal glutamate (EC20) added with thallium
# Chain of UniProt P70579 (P70579 whole entry, looked up): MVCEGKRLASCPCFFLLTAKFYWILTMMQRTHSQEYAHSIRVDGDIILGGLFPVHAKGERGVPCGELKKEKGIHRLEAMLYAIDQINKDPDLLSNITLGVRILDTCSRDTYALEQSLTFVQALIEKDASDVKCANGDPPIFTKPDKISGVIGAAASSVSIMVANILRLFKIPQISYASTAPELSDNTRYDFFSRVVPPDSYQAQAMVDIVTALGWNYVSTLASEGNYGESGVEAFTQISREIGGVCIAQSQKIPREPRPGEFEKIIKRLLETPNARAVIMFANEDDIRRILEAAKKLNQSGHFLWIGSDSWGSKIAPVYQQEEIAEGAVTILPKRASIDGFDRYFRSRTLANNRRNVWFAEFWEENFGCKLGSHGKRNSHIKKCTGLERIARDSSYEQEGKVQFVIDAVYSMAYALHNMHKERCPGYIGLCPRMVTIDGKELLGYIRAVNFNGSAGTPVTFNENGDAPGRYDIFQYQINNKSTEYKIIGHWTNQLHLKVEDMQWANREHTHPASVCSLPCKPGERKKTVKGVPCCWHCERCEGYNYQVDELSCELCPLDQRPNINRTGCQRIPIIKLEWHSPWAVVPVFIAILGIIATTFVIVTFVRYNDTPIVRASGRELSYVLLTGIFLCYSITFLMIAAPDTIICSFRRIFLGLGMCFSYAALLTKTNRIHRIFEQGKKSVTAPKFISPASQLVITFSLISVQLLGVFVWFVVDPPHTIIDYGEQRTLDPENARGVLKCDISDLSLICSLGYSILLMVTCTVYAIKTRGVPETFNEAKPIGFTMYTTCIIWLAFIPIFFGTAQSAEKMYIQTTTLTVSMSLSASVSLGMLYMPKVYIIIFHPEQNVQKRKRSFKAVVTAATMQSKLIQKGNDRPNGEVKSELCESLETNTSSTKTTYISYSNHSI
row,SMILES,z-score
1,Cc1c(C(=O)N2CCCCCC2)oc2ccccc12,-0.117
2,COc1cc2[nH]c(=O)n(CCCCCC(=O)N3CCN(c4ccccc4)CC3)c(=O)c2cc1OC,-0.317
3,CC(=O)CC(c1ccc([N+](=O)[O-])cc1)c1c(O)c2ccccc2oc1=O (stereo not given),-0.233
4,CN(C)/C(=N\S(=O)(=O)c1ccccc1)c1ccc([N+](=O)[O-])cc1,0.0563
5,Cn1cc(C(=O)c2ccc(F)cc2)cc1-c1nc2ccccc2n1C,0.176
6,CCOC(=O)C(=O)Nc1nnc(CCc2ccccc2)s1,-0.456
7,COc1ccc(-c2cc(=O)oc3cc(OC(=O)C4CCCCC4)c(Cl)cc23)cc1,-0.663
8,CC(C)(C)c1ccc(-c2csc(NNC3=NCCCCC3)n2)cc1,1.11
9,CCC(=O)Oc1ccc2c(C)cc(=O)oc2c1C(=O)c1ccccc1,-0.282
10,COc1ccc(CNc2ncnc(N)n2)cc1,-0.153
11,CC1(C)Cc2cccc(OCC(=O)N3CCN(S(=O)(=O)c4ccccc4)CC3)c2O1,-0.297
12,Cc1cnc(C(=O)OCC(=O)Nc2ccc(Oc3ccccc3)cc2)cn1,-1.98
13,O=C1c2cccnc2C(=O)N1Cc1cccs1,0.826
14,CC(=O)NC1C(=O)N=C(SCC(=O)NC(C)c2ccccc2)NC1=O (stereo not given),0.154
15,CC(=O)NS(=O)(=O)c1ccc(NC(=O)c2ccc3c(c2)C(=O)N(CCC(C)C)C3=O)cc1,-0.145
16,CN(C)CCCNS(=O)(=O)c1ccc(N2CCC(c3ccc(Cl)cc3)=N2)cc1,2.59
17,CC1CCCN(Cc2nc3c(c(=O)n(C)c(=O)n3C)n2CC(N)=O)C1 (stereo not given),-0.149
18,Nc1ccc(Cc2nc3cc4ccccc4cc3[nH]2)cc1,0.194
19,O=c1[nH][nH]c(-c2ccccc2)c1C=Nc1ccccc1,-0.278
20,Nc1ccnn1Cc1cccnc1,0.559
21,COc1ccc(C(C)=O)cc1CN1C(=O)C(C)N(c2ccc(C)cc2)C1=O (stereo not given),-0.0103
22,CCOC(=O)c1[nH]c(C)c(C(=O)OCC(=O)N2c3ccccc3CC2C)c1C (stereo not given),-0.182
23,CCOC(=O)N1CCN(C(=O)CSc2nc3c(c(=O)n2-c2ccccc2OC)SCC3)CC1,active: -3.47
24,N#Cc1cccc(NC(=O)C2SC(=Nc3ccccc3)C(C(=O)N3CCOCC3)=C2N)c1 (stereo not given),-0.341
25,Cc1cc(NC(=O)Cn2nnc3sc4c(c3c2=O)CCC(C(C)(C)C)C4)no1 (stereo not given),0.413
26,CC(C)[C@H](NC(=O)c1ccccc1)C(=O)OCC(=O)Nc1ccc(Cl)cc1C(F)(F)F,-0.227
27,Cc1ccc(S(=O)(=O)N2CCCC2C(=O)Oc2ccccc2)cc1 (stereo not given),0.0214
28,COc1ccccc1OCc1nnc(SCC(=O)c2cc(Cl)ccc2OC)o1,-0.0271

row,SMILES,z-score
1,N#C/C(=C\c1cccs1)C(=O)NCc1cccnc1,-0.112
2,O=C(Nc1cccc(F)c1)c1ccc(S(=O)(=O)N2CCOCC2)cc1,-0.354
3,COc1ccc(-n2c(Cc3cccn3C)nnc2SCC(N)=O)cc1,0.498
4,O=C(Oc1cccc(-n2cnnn2)c1)c1ccco1,0.214
5,CCN1CCN(c2cc(C)c3cc(NC(=O)c4cncc(Br)c4)ccc3n2)CC1,-0.912
6,CCN(CC)CC(C)OC(=O)COc1ccc(OC)cc1 (stereo not given),0.117
7,Cc1ccc(-n2nnc3c(=O)n(CC(=O)N4CCC(C)CC4)cnc32)cc1,-0.14
8,CC(CN1CCOCC1)OC(=O)c1ccc2c(c1)OCCO2 (stereo not given),0.0522
9,Cc1cc(C)c(NC(=O)/C(=C/c2ccco2)c2ccccc2)c(C)c1,active: -3.36
10,Cc1cnc(C(=O)Nc2cc(S(=O)(=O)N3CCOCC3)ccc2N2CCN(C)CC2)cn1,0.0173
11,O=C(NN=C1C2CC3CC(C2)CC1C3)c1cc(Cl)ccc1O,0.0729
12,COc1ccc(C)cc1S(=O)(=O)N(C)CC(=O)NC1CCCC1,-0.639
13,CCOC(=O)c1ccc(NC(=S)N(CCCN(CC)CC)Cc2ccco2)cc1,-0.374
14,NC(=O)CSc1ncnc2c1cnn2Cc1ccccc1,active: 4.34
15,COC(=O)c1ccc(CSc2nc3c(cnn3-c3ccc(F)cc3)c(=O)[nH]2)o1,-0.635
16,CCC1CCCCN1CCCNC(=O)c1cn(CC(C)C)c(=O)c2cc(OC)c(OC)cc12 (stereo not given),-0.536
17,Cc1nn(CC(=O)Nc2ccc3c(c2)nc(CCN2CCCCC2)n3C)c(=O)c2ccccc12,-0.174
18,O=C(/C=C/c1ccccc1Cl)N(c1ccccn1)C1CCCCC1,-0.352
19,CCOC(=O)c1[nH]c(=O)c2ccccc2c1O,-0.0367
20,O=C1CC(N2CCN(c3ccc(F)cc3)CC2)C(=O)N1Cc1cccs1 (stereo not given),-0.198
21,CCSc1nc2ccccc2n1C(=O)Oc1ccccc1,-0.129
22,Cn1c(C(=O)NCCCN2CCCCCC2)cc2c(=O)n(C)c3ccccc3c21,2.52
23,CCOC(=O)CSc1nc2ccccc2c(=O)n1CCN1CCOCC1,0.339
24,C/C(=N\NC(=O)C(=O)Nc1cc(Cl)ccc1Cl)c1ccncc1,-0.256
25,Cc1occc1C(=O)Nc1ccc(S(=O)(=O)N2CCCC2)cc1,0.258
26,CC1CCCCN1CCNS(=O)(=O)c1ccc2c(c1)oc(=O)n2C (stereo not given),-0.735
27,COc1cccc(CN2CCN(S(=O)(=O)c3ccc(Br)cc3)CC2)c1,-0.079
